PubChem BioAssay AID488969 (Vanderbilt High Throughput Screening Facility, 2010)
The full ranking holds about 110,000 compounds; the median of “z-score” is about -0.1, and the highest 2% start at about 2. The list shows a part of the results.

target: Metabotropic glutamate receptor 8 (Rattus norvegicus) (UniProt P70579); experiment: rat mGluR8 modulators via GIRK flux, primary screen, cell-based, thallium flux, HTS (AID 488969); details: HEK293 rat mGluR8, GIRK (G protein-gated inwardly rectifying potassium channel) thallium flux, FluoZin2; at 10 µM; stronger effect = higher value; submaximal glutamate (EC20) added with thallium
Chain of UniProt P70579 (P70579 whole entry, looked up): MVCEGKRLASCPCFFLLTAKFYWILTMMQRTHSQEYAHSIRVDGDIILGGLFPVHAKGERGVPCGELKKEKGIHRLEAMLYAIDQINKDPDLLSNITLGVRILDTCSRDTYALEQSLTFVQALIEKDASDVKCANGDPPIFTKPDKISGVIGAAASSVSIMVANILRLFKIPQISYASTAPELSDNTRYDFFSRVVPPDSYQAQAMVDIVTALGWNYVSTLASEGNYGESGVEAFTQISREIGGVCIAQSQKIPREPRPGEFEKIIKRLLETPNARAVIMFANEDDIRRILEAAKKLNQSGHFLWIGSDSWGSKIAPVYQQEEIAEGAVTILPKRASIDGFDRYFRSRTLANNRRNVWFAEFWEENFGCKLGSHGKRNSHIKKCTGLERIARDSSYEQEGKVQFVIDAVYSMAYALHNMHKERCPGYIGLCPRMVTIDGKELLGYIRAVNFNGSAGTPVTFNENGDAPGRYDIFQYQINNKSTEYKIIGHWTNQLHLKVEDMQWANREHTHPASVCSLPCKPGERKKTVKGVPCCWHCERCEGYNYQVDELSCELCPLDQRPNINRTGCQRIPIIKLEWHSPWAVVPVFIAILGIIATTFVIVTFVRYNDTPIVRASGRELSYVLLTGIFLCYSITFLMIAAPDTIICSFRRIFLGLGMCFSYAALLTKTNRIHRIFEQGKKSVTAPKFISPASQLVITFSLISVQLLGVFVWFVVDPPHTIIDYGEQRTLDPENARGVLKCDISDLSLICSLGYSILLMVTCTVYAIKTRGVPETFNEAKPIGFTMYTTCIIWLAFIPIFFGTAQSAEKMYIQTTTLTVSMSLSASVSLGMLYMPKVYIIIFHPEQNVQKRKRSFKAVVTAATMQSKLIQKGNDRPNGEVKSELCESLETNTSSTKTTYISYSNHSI

Compound | z-score
Cc1c(C(=O)N2CCCCC2)sc(NC(=O)c2ccco2)c1C#N | 0.582
NC(=O)CCC(NS(=O)(=O)c1ccc(Cl)cc1)C(=O)NCc1ccccc1Cl (stereo not drawn) | -0.219
Clc1ccsc1-c1ccc2ccccc2n1 | -0.26
O=C(CSc1nc2c(c(=O)n1-c1ccc(F)cc1)SCC2)N1CCCC1 | -1.82
c1ccc(CN2CCN(c3ncccn3)CC2)nc1 | 1.19
Cc1[nH]c2ccccc2c1C(c1ccncc1)N1CCN(c2ccccc2F)CC1 (stereo not drawn) | 0.236
O=C(N/N=C/c1cccnc1)c1ccc([N+](=O)[O-])cc1 | -0.176
COc1ccc(CCNc2ccncn2)cc1OC | 0.0263
COc1ccc(NC(=O)CCCn2c(=O)c3sccc3n(Cc3ccccc3C)c2=O)cc1 | -0.618
CN1CCN(S(=O)(=O)c2cccc(S(=O)(=O)c3ccc(Cl)c(Cl)c3)c2)CC1 | 1.26
NC(=O)c1ncc(C(F)(F)F)cc1Oc1cccc(C(F)(F)F)c1 | -0.0312
O=C(N/N=C/c1ccco1)c1cc(-c2ccc3ccccc3c2)n[nH]1 | 0.126
CCOC(=O)c1ccc(-c2ccc(/C=C(\C#N)C(=O)NCc3cccs3)o2)cc1 | -0.225
CCCC(=O)Nc1nc2ccc3nc(C)sc3c2s1 | -0.507
Cc1cc(N2C(=O)CCC2=O)ccc1NC(=O)c1cccs1 | 0.251
Cc1ccc(S(=O)(=O)c2nc(C)c3c(n2)CCC3)cc1 | -0.0512
CCCCn1nc2cc(C(=O)NCc3ccc(OC)cc3)ccc2c1OCC | -0.348
Cc1nc(NC(C)C)c2oc3ccccc3c2n1 | -1.54
O=C(Nc1ccc(N2CCOCC2)cc1)C1CCCN(S(=O)(=O)c2ccccc2)C1 (stereo not drawn) | 0.446
O=c1n(-c2ccccc2)c(=O)n2n1CCCC2 | -0.0721
COc1cccc(NC(=O)N(CCCN2CCOCC2)C(C)c2cc3cccc(OC)c3o2)c1 (stereo not drawn) | -1.33
CCCCC(=O)Oc1ccccc1C1SCc2cc(C)c(C)cc2CS1 | -0.268
Cc1cc(C(F)(F)F)n2nc(-c3cnn(C)c3C(F)(F)F)c(Cl)c2n1 | -0.158

Compound | z-score
O=C(Nc1ccc2c(c1)OCCO2)c1cc2sccc2n1Cc1ccc(F)cc1 | -0.281
CC(C)Nc1nc(SCC(N)=O)nc(N2CCOCC2)n1 | 0.411
CC(=O)Nc1ccc(C(=O)OC2CCCCC2=O)cc1 (stereo not drawn) | 0.0145
Nc1nc2ccccc2n1/N=C/c1cccnc1 | -0.129
O=C(CSc1nc2ccccc2c(=O)n1CCCO)N1CCc2ccccc21 | -0.17
CCN(CC)S(=O)(=O)c1ccc(NC(=O)C(C)N(c2ccccc2)S(C)(=O)=O)cc1 (stereo not drawn) | -0.142
CCCNC(=O)COC(=O)c1[nH]c(C)c(C(=O)OCC)c1C | -0.279
O=C(NC(Cc1ccccc1)C(=O)O)/C(=C/c1ccccc1)NC(=O)c1ccccc1 (stereo not drawn) | -0.249
CC1(C)Nc2ccccc2N(CC(=O)N2CCCCC2)C1=O | 0.972
Cc1cc(-c2ccco2)n(CC(=O)NCc2ccccc2)n1 | 0.232
Cc1cc(C)c(C)c(S(=O)(=O)N2CCN(C(=O)c3cc(=O)[nH]c4ccccc34)CC2)c1C | -0.942
Cc1c(NC(=O)C(Sc2ccccc2)c2ccccc2)cccc1[N+](=O)[O-] (stereo not drawn) | 0.0967
CC(=O)c1c[nH]c2ccc(C)cc2c1=O | -0.303
COc1ccccc1NC(=O)CSc1nnc(CNC(=O)c2ccco2)o1 | 1.4
Cc1nnc(SCC(=O)Nc2sc3c(c2C(=O)c2ccccc2)CCCC3)s1 | -0.931
COc1cccc2c1OC1(C)CC2NC(=O)N1Cc1ccccc1 (stereo not drawn) | -0.315
CCOC(=O)c1cc2nc(-c3ccco3)cc(C(F)(F)F)n2n1 | -1.72
Cc1c(Cl)c([N+](=O)[O-])nn1Cc1ccc(C(=O)Nc2ccc(Cl)cn2)o1 | -0.27
Cc1[nH]nc2c1C1(CCOCC1)C(C#N)=C(N)O2 | -0.0698
S=C(Nc1cccc(Cl)c1)NC1CC2CCCC(C1)N2C1CCCC1 (stereo not drawn) | 0.659
CN(c1cccc(NC(=O)CCSc2ccccc2)c1)S(C)(=O)=O | -0.245
COc1ccc(C(c2sc3ncnn3c2O)N2CC(C)OC(C)C2)cc1OC (stereo not drawn) | -0.138
CCCNC(=O)CN(c1ccc(F)c(Cl)c1)S(C)(=O)=O | -0.357

Compound | z-score
Cn1cnnc1SCc1cccc(Br)c1 | 0.349
CC(/C=C1\SC(=S)N(NC(=O)c2ccc(C)cc2)C1=O)=C\c1ccccc1 | -0.0875
Cc1onc(-c2ccccc2Cl)c1C(=O)Oc1cc(N)n(S(=O)(=O)c2ccc(F)cc2)n1 | -1.95
CCOC(=O)C1CCN(C(=O)c2sc3nc(C)nc(N4CCC(C)CC4)c3c2C)CC1 | -0.881
COc1cc(C(=O)OCC(=O)Nc2cc(C)on2)cc(OC)c1OC | -0.0426
COc1ccc2nc(CC(C)(C)CC(=O)O)c[n+]([O-])c2c1 | -0.136
Cc1ccc(NCC(=O)N/N=C\C(Br)=C\c2ccccc2)cc1 | -0.852
Cc1ccsc1C1NC(=O)c2c(sc3c2CCN(C)C3)N1 (stereo not drawn) | -0.443
C/C(=N\NC(=O)Cc1ccccc1)c1cccs1 | -0.219
CC(C)(C)c1cc(Cc2ccccc2)[nH]n1 | -0.13
Cn1c(C(=O)OC(C(=O)NC2CCCCC2)c2cccnc2)cc2sccc21 (stereo not drawn) | -0.109
COc1ccc(/C=C2\N=C(SC)SC2=O)cc1OC | -0.325
Cc1c(C#N)c2ncn(Cc3ccccn3)c(=O)c2n1-c1ccccc1 | -0.89
Cn1c(=S)[nH]c2ccccc21 | 0.0514
O=C1CCN(N=Nc2cccc(Cl)c2)N1 | 0.605
COc1ccc(-c2csc(/C(C#N)=C/Nc3ccc4c(c3)OCCO4)n2)cc1 | -0.607
C=CCNC(=O)c1ccccc1Cl | -0.0738
CCCOc1ccc(-c2nc(C#N)c(NCCCn3ccnc3)o2)cc1 | 0.0152
COc1ccc(NC(C)=O)cc1NC(C)C(=O)Nc1cccc2ccccc12 (stereo not drawn) | 0.181
CCn1c2ccccc2c2nnc(SCC(=O)c3ccccc3)nc21 | -0.432
CC(=O)Nc1cccc(C(=O)/C=C/c2cccs2)c1 | 0.574
CC(C)c1nc(SCC(=O)N2CCCc3ccccc32)c2c(=O)n(C)c(=O)n(C)c2n1 | 0.961
O=C(Cc1ccccc1Cl)Nc1cccc(S(=O)(=O)N2CCOCC2)c1 | -0.174

Compound | z-score
CC(=O)c1ccc(N2CCN(C(=S)Nc3cccc(Cl)c3)CC2)cc1 | -0.152
CC(=O)c1ccc(NS(=O)(=O)c2ccc(CC(C)C)cc2)cc1 | -0.316
Cc1nnc(SCC(=O)Nc2sccc2C(N)=O)n1Cc1ccccc1 | -0.51
O=C(O)C1CCCCC1C(=O)NCCCN1CCOCC1 (stereo not drawn) | 0.0352
COc1cccc(Nc2ccc(C(=O)O)cc2[N+](=O)[O-])c1 | 0.594
Cc1ccccc1Oc1cccc(C(=O)/C(C#N)=C/N(C)C)c1 | 0.0388
N#CCSCC(=O)Nc1ccc(Br)cc1 | -0.0912
COc1ccc(N(CC(=O)NCCSC(C)(C)C)S(C)(=O)=O)c(OC)c1 | 0.534
O=C1/C(=C\c2cccs2)N=C(c2cccs2)N1Nc1ccccc1 | 0.00186
Oc1ccccc1-c1nnc(COc2ccccc2)o1 | -0.0157
CC(=O)c1cccc(NC(=O)COc2nsnc2N2CCOCC2)c1 | -0.119
Cc1cccc(C(=O)Oc2ccccc2-c2nnco2)c1 | -0.546
CC(=O)N1CCc2cc(S(=O)(=O)NC(C(=O)NCc3ccccc3)C(C)C)ccc21 (stereo not drawn) | 1.38
CN1/C(=C\C(=O)CN2C(=O)NC3(CCCCCC3)C2=O)C(C)(C)c2ccccc21 | 0.196
O=C(Cc1ccccc1)N1CCCC(c2nc(-c3cccs3)no2)C1 (stereo not drawn) | -0.856
O=C1CC(c2ccc(Cl)cc2)n2nc(NS(=O)(=O)c3ccc(F)cc3)nc2N1 (stereo not drawn) | 0.11
COC(=O)CNC(=O)CN1C(=O)N(c2ccc(Cl)cc2)C(N(O)C(=O)Nc2ccc(Cl)cc2)C1(C)C (stereo not drawn) | 0.0314
CON/C=C(\C=Nc1ccc(Cl)cc1Cl)c1ncc(C(F)(F)F)cc1Cl | -0.248
COc1ccccc1NC(=O)CCN1CCN(Cc2ccccc2)CC1 | -0.174
O=C(NCc1ccccc1)Nc1cccn(Cc2ccccc2F)c1=O | -0.0615
Clc1ccc(OCCN2CCCCC2)c(Cl)c1 | 0.502
CC(C)n1c(C(=O)OCC(=O)NCc2ccc3c(c2)OCO3)cc2sccc21 | -0.44
CC(=O)c1ccc(NC(=O)c2noc3c2CCCCC3)cc1 | -0.238

Compound | z-score
Cc1sc(-c2ccccn2)nc1OC(=O)c1cccc(Cl)c1Cl | -0.206
CCn1c(N)c(C(=O)NCc2ccc3c(c2)OCO3)sc1=S | 0.155
O=C(NCc1cccs1)c1cc(S(=O)(=O)N2CCCCC2)ccc1Cl | -0.0516
Cc1cc(C)cc(Oc2ccc(N)cc2)c1 | -0.0297
Cn1c(=O)c2c(nc(CN3CCOCC3)n2CC(=O)c2ccccc2)n(C)c1=O | -0.336
Cc1cc(/C=C2/C(=O)NN(c3ccccc3)C2=O)c(C)n1-c1ccc(O)cc1 | -0.505
CC1CCN(C(=O)CSc2nc3ccccc3s2)CC1 | -0.0843
Cc1ccccc1NC(=O)NCCc1nc2ccccc2[nH]1 | -0.0805
CN(C)/N=C/C=C1\CC/C(=C\c2ccc(Br)cc2)C1=O | -0.096
CCOC(=O)c1c(NC(=O)COc2cccc3c2CCN(C)C3=O)sc2c1CCC2 | -0.448
CCOC(=O)Cc1c(C)nc2c(-c3ccccc3)c(C)nn2c1C | -1.04
O=S1(=O)N=C(Nc2ccc(N3CCOCC3)cc2)c2ccccc21 | -0.076
Cn1ncc(Cl)c1C(=O)Nc1cccnc1 | -0.143
O=C(Nc1ccc2c(c1)CCC2)c1cc(S(=O)(=O)N2CCN(c3ccccc3)CC2)ccc1Cl | 0.424
CCOC(=O)c1c(C)n(CCO)c2ccc(O)cc12 | -0.314
CCCN(/C=N/c1sc2c(c1C#N)CCCCC2)CCC | -0.155
CCOCCCn1cnc2c([nH]c3cc(OC)ccc32)c1=O | 1.01
O=C(/C=C/c1cccc(Cl)c1)Nn1c(-c2cccs2)nc2ccccc2c1=O | -0.649
O=C1N/C(=N\N=C\c2cccs2)SC1Cc1ccc(Cl)cc1Cl (stereo not drawn) | 0.000784
Cn1c(=O)c2c(ncn2CC(=O)N2CCN(c3ccccc3F)CC2)n(C)c1=O | 0.213
CC(/C=N/NC(=O)c1cc(-c2ccc(C)o2)[nH]n1)=C\c1ccccc1 | -0.433
